The record followed here is paper PMC12820563, “FoxP3 forms a head-to-head dimer in vivo and stabilizes its multimerization on adjacent microsatellites”.

Some of the results follow.

The target of this assay is T1, MBP-FoxP1dN (Mus musculus, UniProt P58462 326-579).
T1 sequence: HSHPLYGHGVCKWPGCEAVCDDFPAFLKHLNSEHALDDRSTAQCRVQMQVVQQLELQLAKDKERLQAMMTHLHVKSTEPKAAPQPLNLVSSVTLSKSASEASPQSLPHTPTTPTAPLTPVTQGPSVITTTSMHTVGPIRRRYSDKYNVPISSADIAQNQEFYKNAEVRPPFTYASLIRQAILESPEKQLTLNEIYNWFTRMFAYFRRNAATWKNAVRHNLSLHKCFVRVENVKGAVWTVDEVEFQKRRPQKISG
The assay is described as follows: PD-seq (MBP pull-down with sequencing); 20 mM Tris-HCl pH 7.5, 100 mM NaCl, 1.5 mM MgCl2, 0.4 uM protein, 0.1 uM dsDNA library, 30 min, room temperature, amylose pull-down; high values mean tight binding. The note with it: protein: recombinant; tags: His6-MBP; chain copies: 2; dsDNA, one strand shown. In short, it runs like this: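 Amylose resin was used to capture complexes formed during 30 min at room temperature in Tris pH 7.5 buffer with NaCl and MgCl2 between 0.4 µM His6-MBP-tagged mouse FoxP3 or FoxP1 fragment lacking the N-terminus, expressed in E. coli, and 0.1 µM Klenow-filled double-stranded degenerate DNA library. After three washes, the DNA was released with proteinase K, barcoded by PCR and sequenced on Illumina. Binding is pooled-replicate reads-per-million enrichment, pull-down over input.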
In the case of “GATGATTGTTCTCCCAGCTGATGAATTTACTGGATCGAGTAAACAAATTTTCCTAATCTTTCTGTTCAAGCGCCATCTAC”, the binding signal is 1.02 RPM ratio (pull-down/input).

On to “GATGATTGTTCTCCCAGCTGATGAATTGAGACGTTCGAGTAAACAAATTTTCCTAATCTTTCTGTTCAAGCGCCATCTAC”, for which the binding signal was 0.83 RPM ratio (pull-down/input).

Take “GATGATTGTTCTCCCAGCTGATGAATTGCCTATCTCGAGTAAACAAATTTTCCTAATCTTTCTGTTCAAGCGCCATCTAC”: the binding signal is 0.914 RPM ratio (pull-down/input).

On to “GATGATTGTTCTCCCAGCTGATGAATTACTCGACTCGAGTAAACAAATTTTCCTAATCTTTCTGTTCAAGCGCCATCTAC”, for which the binding signal was 0.947 RPM ratio (pull-down/input).

Regarding “GATGATTGTTCTCCCAGCTGATGAATTTTGTCCTTCGAGTAAACAAATTTTCCTAATCTTTCTGTTCAAGCGCCATCTAC”, the binding signal is 1 RPM ratio (pull-down/input).

“GATGATTGTTCTCCCAGCTGATGAATTTTAGAAATCGAGTAAACAAATTTTCCTAATCTTTCTGTTCAAGCGCCATCTAC”: the binding signal is 1.01 RPM ratio (pull-down/input).

With “GATGATTGTTCTCCCAGCTGATGAATTCGAGTTGTCGAGTAAACAAATTTTCCTAATCTTTCTGTTCAAGCGCCATCTAC”, the binding signal is 1.15 RPM ratio (pull-down/input).

For the sequence “GATGATTGTTCTCCCAGCTGATGAATTTAGAAGCTCGAGTAAACAAATTTTCCTAATCTTTCTGTTCAAGCGCCATCTAC”, the binding signal is 0.868 RPM ratio (pull-down/input).

Regarding “GATGATTGTTCTCCCAGCTGATGAATTCATTGGATCGAGTAAACAAATTTTCCTAATCTTTCTGTTCAAGCGCCATCTAC”, the binding signal was 0.843 RPM ratio (pull-down/input).

On to “GATGATTGTTCTCCCAGCTGATGAATTGGCTATCTCGAGTAAACAAATTTTCCTAATCTTTCTGTTCAAGCGCCATCTAC”, for which the binding signal was 0.86 RPM ratio (pull-down/input).

For the sequence “GATGATTGTTCTCCCAGCTGATGAATTACAAACCTCGAGTAAACAAATTTTCCTAATCTTTCTGTTCAAGCGCCATCTAC”, the binding signal is 1.27 RPM ratio (pull-down/input).

Regarding “GATGATTGTTCTCCCAGCTGATGAATTAGCCATGTCGAGTAAACAAATTTTCCTAATCTTTCTGTTCAAGCGCCATCTAC”, the binding signal was 0.837 RPM ratio (pull-down/input).

Take “GATGATTGTTCTCCCAGCTGATGAATTTCCGTTATCGAGTAAACAAATTTTCCTAATCTTTCTGTTCAAGCGCCATCTAC”: the binding signal was 0.93 RPM ratio (pull-down/input).

Consider “GATGATTGTTCTCCCAGCTGATGAATTCGATAGATCGAGTAAACAAATTTTCCTAATCTTTCTGTTCAAGCGCCATCTAC”, for which the binding signal is 0.844 RPM ratio (pull-down/input).

Take “GATGATTGTTCTCCCAGCTGATGAATTGCTGGATTCGAGTAAACAAATTTTCCTAATCTTTCTGTTCAAGCGCCATCTAC”: the binding signal was 0.987 RPM ratio (pull-down/input).

Take “GATGATTGTTCTCCCAGCTGATGAATTCGCTGGCTCGAGTAAACAAATTTTCCTAATCTTTCTGTTCAAGCGCCATCTAC”: the binding signal is 0.845 RPM ratio (pull-down/input).

Take “GATGATTGTTCTCCCAGCTGATGAATTACAGCAATCGAGTAAACAAATTTTCCTAATCTTTCTGTTCAAGCGCCATCTAC”: the binding signal was 1.28 RPM ratio (pull-down/input).

In the case of “GATGATTGTTCTCCCAGCTGATGAATTCATCGTTTCGAGTAAACAAATTTTCCTAATCTTTCTGTTCAAGCGCCATCTAC”, the binding signal is 0.963 RPM ratio (pull-down/input).

Consider “GATGATTGTTCTCCCAGCTGATGAATTGCCCATGTCGAGTAAACAAATTTTCCTAATCTTTCTGTTCAAGCGCCATCTAC”, for which the binding signal was 0.854 RPM ratio (pull-down/input).

Take “GATGATTGTTCTCCCAGCTGATGAATTCCTATAATCGAGTAAACAAATTTTCCTAATCTTTCTGTTCAAGCGCCATCTAC”: the binding signal was 1.07 RPM ratio (pull-down/input).

Consider “GATGATTGTTCTCCCAGCTGATGAATTTGGCCTCTCGAGTAAACAAATTTTCCTAATCTTTCTGTTCAAGCGCCATCTAC”, for which the binding signal is 0.865 RPM ratio (pull-down/input).

As to “GATGATTGTTCTCCCAGCTGATGAATTCGTATCCTCGAGTAAACAAATTTTCCTAATCTTTCTGTTCAAGCGCCATCTAC”, the binding signal is 0.871 RPM ratio (pull-down/input).

For “GATGATTGTTCTCCCAGCTGATGAATTTTATGACTCGAGTAAACAAATTTTCCTAATCTTTCTGTTCAAGCGCCATCTAC”, the binding signal was 0.916 RPM ratio (pull-down/input).

Turning to “GATGATTGTTCTCCCAGCTGATGAATTGAGTTCTTCGAGTAAACAAATTTTCCTAATCTTTCTGTTCAAGCGCCATCTAC”, the binding signal was 0.823 RPM ratio (pull-down/input).

Turning to “GATGATTGTTCTCCCAGCTGATGAATTACGCGGGTCGAGTAAACAAATTTTCCTAATCTTTCTGTTCAAGCGCCATCTAC”, the binding signal is 0.899 RPM ratio (pull-down/input).

For “GATGATTGTTCTCCCAGCTGATGAATTCTAAGTATCGAGTAAACAAATTTTCCTAATCTTTCTGTTCAAGCGCCATCTAC”, the binding signal is 0.956 RPM ratio (pull-down/input).

Take “GATGATTGTTCTCCCAGCTGATGAATTAATGTTCTCGAGTAAACAAATTTTCCTAATCTTTCTGTTCAAGCGCCATCTAC”: the binding signal was 1.04 RPM ratio (pull-down/input).

As for “GATGATTGTTCTCCCAGCTGATGAATTGGATCGTTCGAGTAAACAAATTTTCCTAATCTTTCTGTTCAAGCGCCATCTAC”, the binding signal was 0.864 RPM ratio (pull-down/input).

Consider “GATGATTGTTCTCCCAGCTGATGAATTGCTCGGCTCGAGTAAACAAATTTTCCTAATCTTTCTGTTCAAGCGCCATCTAC”, for which the binding signal is 0.843 RPM ratio (pull-down/input).

For “GATGATTGTTCTCCCAGCTGATGAATTAGAATTCTCGAGTAAACAAATTTTCCTAATCTTTCTGTTCAAGCGCCATCTAC”, the binding signal was 0.808 RPM ratio (pull-down/input).

Take “GATGATTGTTCTCCCAGCTGATGAATTGTACGATTCGAGTAAACAAATTTTCCTAATCTTTCTGTTCAAGCGCCATCTAC”: the binding signal was 0.934 RPM ratio (pull-down/input).

As to “GATGATTGTTCTCCCAGCTGATGAATTGGGTTACTCGAGTAAACAAATTTTCCTAATCTTTCTGTTCAAGCGCCATCTAC”, the binding signal is 0.886 RPM ratio (pull-down/input).

In the case of “GATGATTGTTCTCCCAGCTGATGAATTTTTGATATCGAGTAAACAAATTTTCCTAATCTTTCTGTTCAAGCGCCATCTAC”, the binding signal is 1.17 RPM ratio (pull-down/input).

For the sequence “GATGATTGTTCTCCCAGCTGATGAATTCCCGCAGTCGAGTAAACAAATTTTCCTAATCTTTCTGTTCAAGCGCCATCTAC”, the binding signal is 0.75 RPM ratio (pull-down/input).

For the sequence “GATGATTGTTCTCCCAGCTGATGAATTCAGGCCCTCGAGTAAACAAATTTTCCTAATCTTTCTGTTCAAGCGCCATCTAC”, the binding signal is 0.789 RPM ratio (pull-down/input).

On to “GATGATTGTTCTCCCAGCTGATGAATTTCCGACATCGAGTAAACAAATTTTCCTAATCTTTCTGTTCAAGCGCCATCTAC”, for which the binding signal was 0.936 RPM ratio (pull-down/input).

As for “GATGATTGTTCTCCCAGCTGATGAATTCGACAGATCGAGTAAACAAATTTTCCTAATCTTTCTGTTCAAGCGCCATCTAC”, the binding signal is 0.791 RPM ratio (pull-down/input).

In the case of “GATGATTGTTCTCCCAGCTGATGAATTAAGCCAATCGAGTAAACAAATTTTCCTAATCTTTCTGTTCAAGCGCCATCTAC”, the binding signal was 1.03 RPM ratio (pull-down/input).

Regarding “GATGATTGTTCTCCCAGCTGATGAATTTGACTTCTCGAGTAAACAAATTTTCCTAATCTTTCTGTTCAAGCGCCATCTAC”, the binding signal is 0.82 RPM ratio (pull-down/input).

With “GATGATTGTTCTCCCAGCTGATGAATTTCGTTGATCGAGTAAACAAATTTTCCTAATCTTTCTGTTCAAGCGCCATCTAC”, the binding signal is 1.11 RPM ratio (pull-down/input).
